Measurements published in PubChem BioAssay AID540317 (National Center for Advancing Translational Sciences (NCATS), 2011).
Screen size: about 390,000 compounds; about 2,200 (0.56%) were called active. The inconclusive results got no clear call from the source; some entries with a clear call stand among them for comparison. Calls come from the whole dose curve; as a rule, active = well fitted inhibition curve with a large enough effect; inconclusive = small, poorly fitted or top-dose-only effect; inactive = no such curve, though single readings can be large or run the other way. Potencies beside an inconclusive call are fits to weak or partial responses and may not hold up.

Target: Chromobox protein homolog 1 (Homo sapiens) (UniProt P83916)
Assay: HTS for Inhibitors of HP1-beta Chromodomain Interactions with Methylated Histone Tails; note: nearly all actives have a fitted effect of over 70% in size
Conditions: AlphaScreen HP1-beta / biotin-H3K9me3 peptide binding; series mostly up to 114 µM; activity change, negative = inhibition: at the top concentration
Procedure, shortened: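 Compound inhibition of the preformed complex between 50 nM HP1-beta and 50 nM biotinylated H3K9me3 peptide was read by AlphaScreen. Buffer was PBS pH 7.4 with 0.01% Tween-20. Incubations ran 30 min at room temperature, with 10 ug/mL donor/acceptor beads.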
Potency is the fitted concentration of half-maximal effect; tags give direction and shape of the fitted curve.

Sequence of UniProt P83916 (P83916 whole entry, looked up): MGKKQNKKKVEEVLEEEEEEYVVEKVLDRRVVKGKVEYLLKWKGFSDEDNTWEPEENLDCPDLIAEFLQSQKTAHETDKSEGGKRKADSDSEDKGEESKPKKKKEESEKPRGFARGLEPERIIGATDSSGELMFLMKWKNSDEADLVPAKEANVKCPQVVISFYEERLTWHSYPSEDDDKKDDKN

Structure (SMILES) | Potency | activity change, negative = inhibition
COc1ccc(CN2C(=O)c3cccnc3C2Nc2cc(Cl)c(OC)cc2OC)cc1 (configuration not stated) | inconclusive: 44.7 µM [inhibitor, partial curve] | 
CCNC1=C(Cl)C(=O)c2ccccc2C1=O | inconclusive: 25.1 µM [inhibitor, full curve, poor fit] | 
S=c1[nH]nc(-c2ccco2)n1/N=C/C=C/c1ccco1 | inconclusive: 56.2 µM [inhibitor, single point] | 
CCN1C(=O)[C@H]2[C@@H](c3ccc(-c4cccc(Cl)c4)cc3)N[C@@](C)(C(=O)OC)[C@H]2C1=O |  | inactive: 20.4%
CN(C)CCCN(C(=O)c1ccc(S(=O)(=O)N2CCc3ccccc32)cc1)c1nc2ccc(Cl)cc2s1 | inconclusive: 50.1 µM [inhibitor, partial curve] | 
COCCNC(=O)/C(C#N)=C/C=C/c1ccccc1 |  | inactive: 27.6%
CC1CCN(CC(=O)Nc2ccc(C(=O)N3CCCCC3)cc2)CC1 | inconclusive: 50.1 µM [inhibitor, single point] | 
Nc1cc([N+](=O)[O-])ccc1Nc1ccc(O)cc1 | inconclusive: 39.8 µM [inhibitor, partial curve] | 
CN1CCC(N(C)CC(=O)Nc2ccc3c(c2)OC(F)(F)O3)CC1 | inconclusive: 15.8 µM [inhibitor, full curve] | 
COc1ccc(-c2c(C)nn3c(-c4ccccc4)cc(-c4ccccc4)nc23)cc1 | inconclusive: 8.91 µM [inhibitor, partial curve] | 
Cc1cc(C)cc(NC(=O)CCc2nc3sc4c(c3c(=O)[nH]2)CCCC4)c1 |  | inactive: 18.3%
CN(CC(=O)Nc1cccc(F)c1)C(=O)c1cc(=O)[nH]c2ccccc12 |  | inactive: 35.3%
O=c1[nH]c2ccc(Cl)cc2c(-c2ccccc2)c1SC(=S)N1CCCCC1 | inconclusive: 28.2 µM [inhibitor, full curve] | 
COc1ccccc1NS(=O)(=O)c1cc(NC(=O)Nc2ccc(Cl)cc2Cl)ccc1N1CCCCC1 | inconclusive: 17.8 µM [inhibitor, full curve] | 
Fc1ccc(Nc2c(-c3c[nH]c4ccccc34)nc3ccccn23)cc1 | inconclusive: 15.8 µM [inhibitor, full curve] | 
CC1=C/C(=N\OS(=O)(=O)c2ccccc2)C=CC1=O | inconclusive: 20 µM [inhibitor, partial curve, poor fit] | 
CC1CN(Cc2c(O)ccc3c2oc(=O)c2ccccc23)CC(C)O1 (configuration not stated) | inconclusive: 22.4 µM [inhibitor, full curve] | 
CC1CCCN(C(=O)c2ccc3c(c2NCCO)C(=O)c2ccccc2C3=O)C1 (configuration not stated) | active: 50.1 µM | 
Cc1ccc(OCCNC(=O)c2ccccc2OCc2c(C)noc2C)cc1 |  | inactive: 25.8%
CN(C)CCCO/N=C(\c1ccccc1)c1ccncc1 | inconclusive: 56.2 µM [inhibitor, partial curve, poor fit] | 
CN(C)c1ccc(C(=O)Nc2nc3c(s2)CCCC3)cc1 | inconclusive: 50.1 µM [inhibitor, partial curve] | 

Structure (SMILES) | Potency | activity change, negative = inhibition
O=C(O)c1ccc(N2CC3CC(C2)c2cccc(=O)n2C3)c(NC(=S)Nc2ccc(Cl)cc2Cl)c1 (configuration not stated) | inconclusive: 7.08 µM [inhibitor, full curve, poor fit] | 
O=C(NC(=S)Nc1ccc(N2CCN(C(=O)c3ccccc3)CC2)cc1)c1cccs1 | inconclusive: 17.8 µM [inhibitor, full curve] | 
CN(C)c1ccc(C(CN)c2c[nH]c3ccccc23)cc1 (configuration not stated) | inconclusive: 15.8 µM [inhibitor, full curve] | 
CC(=O)Nc1n[nH]c(=S)s1 | inconclusive: 22.4 µM [inhibitor, full curve, poor fit] | 
CC(C)(C)c1ccc2c(c1)C(=O)c1ccccc1C2=O | inconclusive: 25.1 µM [inhibitor, full curve] | 
COc1cc(CN2CCc3c([nH]c4ccccc34)C2)cc(OC)c1 | inconclusive: 44.7 µM [inhibitor, partial curve] | 
CCc1cc(=O)[nH]c(SCC(=O)Nc2cc(C)on2)n1 | inconclusive: 31.6 µM [inhibitor, single point] | 
CC(=O)Oc1ccc(N2C(=O)C3C4C=CC(CO)(O4)C3C2=O)cc1 (configuration not stated) | inconclusive: 25.1 µM [inhibitor, full curve, poor fit] | 
COC(=O)C1=C(C)NC(=O)/C1=C\c1cc(C)n(-c2cccc(C)c2)c1C | active: 20 µM | 
CCc1ccc(CN(C)C(=O)c2cc(COc3c(F)cccc3F)on2)cc1 |  | inactive: 123%
Cc1ccc(CSc2nnc(-c3cccc(S(=O)(=O)N4CCOCC4)c3)n2C2CCCC2)cc1 | inconclusive: 39.8 µM [inhibitor, partial curve, poor fit] | 
CC(C)NC(=O)CN1CCN(c2ncccn2)CC1 | inconclusive: 56.2 µM [inhibitor, partial curve] | 
COc1cccc(N(CC(=O)NC2CCCCC2)C(=O)CCCC(=O)Nc2ccccn2)c1 |  | inactive: -19.5%
c1csc(-c2nc3ccccn3c2Nc2ccc3c(c2)OCCO3)c1 | inconclusive: 28.2 µM [inhibitor, full curve] | 
C/C(=N\N1C(=O)c2ccccc2NC1c1ccco1)c1ccccc1O (configuration not stated) | inconclusive: 79.4 µM [inhibitor, single point] | 
CCN(CC)c1ccc(/C=N/N2CCN(Cc3ccc(C)cc3C)CC2)c(O)c1 | active: 20 µM | 
CCOc1ccccc1C(=O)NCC(c1ccc(N(C)C)cc1)N1CCc2ccccc21 (configuration not stated) | inconclusive: 12.6 µM [inhibitor, full curve] | 
Cc1ccc(S(=O)(=O)N2CCCOC2CNC(=O)C(=O)NCCC2=CCCCC2)cc1 (configuration not stated) | inconclusive: 39.8 µM [inhibitor, partial curve, poor fit] | 
Cc1ccc(Sc2c(C)nn(C(=O)COc3ccccc3)c2C)cc1 |  | inactive: 96.1%
CCN(CC)C(=O)C1CCN(Cc2ccc(Br)cc2)CC1 | inconclusive: 15.8 µM [inhibitor, full curve] | 
N#Cc1nc(COc2ccc(Cl)cc2)oc1N1CCN(Cc2ccccc2)CC1 | inconclusive: 63.1 µM [inhibitor, single point] | 
